Measurements taken from PubChem BioAssay AID2147 (National Center for Advancing Translational Sciences (NCATS), 2009).
The whole screen tested about 230,000 compounds, of which about 3,600 (1.6%) were called active. This list was built around the results that the source calls inconclusive (neither active nor inactive); the mix of calls is not that of the screen. Calls come from the whole dose curve; as a rule, active = well fitted inhibition curve with a large enough effect (not every such curve was filed as active); inconclusive = small, poorly fitted or top-dose-only effect, or another doubt; inactive = no such curve, though single readings can be large or run the other way. Potencies beside an inconclusive call are fits to weak or partial responses and may not hold up.

Molecular target: Lysine-specific demethylase 4E (Homo sapiens) (UniProt B2RXH2)
Experiment: qHTS Assay for Inhibitors of Human Jumonji Domain Containing 2E (JMJD2E)
Details: JMJD2E catalytic domain, FDH-coupled NADH fluorescence (FDH is formaldehyde dehydrogenase); series mostly up to 57.1 µM; activity change, negative = inhibition: at the top concentration
Note: nearly all actives have a fitted effect of over 50% in size.
Potency is the fitted concentration of half-maximal effect; tags give direction and shape of the fitted curve.
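Throughout, for activity change, negative = inhibition: 0% = wells with enzyme and -100% = buffer wells without enzyme.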

Sequence of UniProt B2RXH2 (B2RXH2 whole entry, looked up, the tested form may be a part): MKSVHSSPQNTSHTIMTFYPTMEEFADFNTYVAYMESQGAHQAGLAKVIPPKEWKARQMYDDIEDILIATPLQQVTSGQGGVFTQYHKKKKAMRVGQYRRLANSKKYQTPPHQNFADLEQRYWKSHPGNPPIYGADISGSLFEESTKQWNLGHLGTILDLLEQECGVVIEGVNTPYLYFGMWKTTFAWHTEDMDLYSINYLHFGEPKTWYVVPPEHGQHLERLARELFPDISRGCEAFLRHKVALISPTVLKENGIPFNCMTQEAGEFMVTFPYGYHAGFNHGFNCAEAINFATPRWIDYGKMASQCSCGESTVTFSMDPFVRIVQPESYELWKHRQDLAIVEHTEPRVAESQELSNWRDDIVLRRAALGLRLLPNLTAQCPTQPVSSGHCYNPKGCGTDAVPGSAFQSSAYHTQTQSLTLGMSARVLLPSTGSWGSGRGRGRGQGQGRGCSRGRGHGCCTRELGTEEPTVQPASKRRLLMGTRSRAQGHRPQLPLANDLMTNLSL

Compound | activity change, negative = inhibition | Potency
Cc1cccc(C)c1OCCCN1CCCC1 | inactive: -24.9% | –
Cc1ccc(S(=O)(=O)CCC(=O)c2ccc(O)cc2O)cc1 | inactive: 2.26% | –
CSc1oc(-c2ccc(F)cc2)nc1S(=O)(=O)c1ccc(F)cc1 | – | inconclusive: 39.8 µM [inhibitor, single point]
O=C(Nc1sc2c(c1C(=O)NC1CCCCC1)CCC2)c1ccco1 | – | inconclusive: 35.5 µM [inhibitor, single point]
CCC(c1nnnn1C(C)(C)CC)N(CCN1CCOCC1)Cc1cc2cc(C)ccc2[nH]c1=O (stereo not drawn) | – | inconclusive: 20 µM [inhibitor, partial curve]
O=C(O)CCCCCN1C(=O)C(O)=C(C(=O)/C=C/c2ccccc2)C1c1cccc([N+](=O)[O-])c1 (stereo not drawn) | inactive: -17% | –
CCOc1ccc(N(CC)S(=O)(=O)c2ccc3c(c2)n(C)c(=O)c(=O)n3C)cc1 | – | inconclusive: 39.8 µM [inhibitor, single point]
CC1=CC(C#N)(C#N)C(C#N)(C#N)C(c2ccccc2)N1 (stereo not drawn) | – | inconclusive: 31.6 µM [inhibitor, partial curve]
Cc1[nH]n(-c2cccc3ccccc23)c(=O)c1/C=N/c1sc2c(c1C#N)CCC2 | – | inconclusive: 14.1 µM [inhibitor, partial curve]
CCN(CC)S(=O)(=O)c1ccc(OC)c(NC(=S)Nc2ccc(C)c(C)c2)c1 | inactive: 1.5% | –
Cc1cc(=O)[nH]c(Sc2c(-c3ccccc3)c3ccccc3[nH]c2=O)n1 | – | inconclusive: 28.2 µM [inhibitor, single point]
CC(C)c1cc(C(=O)N2CCCC(C(=O)c3ccc4ccccc4c3)C2)on1 (stereo not drawn) | – | inconclusive: 25.1 µM [inhibitor, single point]
C[C@H](CCC(=O)O)[C@H]1CC[C@@H]2[C@@H]3[C@@H](O)C[C@H]4C[C@@H](O)CC[C@@]4(C)[C@H]3CC[C@@]21C | inactive: -3.45% [at 25.5 µM] | –
COc1cc(/C=C/C(=O)O)ccc1OCc1cnc(Cl)s1 | – | inconclusive: 31.6 µM [inhibitor, single point]
COCCn1c(SC2CCCCC2=O)nnc1-c1ccncc1 (stereo not drawn) | inactive: -1.92% | –
COCCNC(=O)C(c1ccc(C)o1)N(Cc1ccco1)C(=O)c1snc(C(N)=O)c1N (stereo not drawn) | – | inconclusive: 25.1 µM [inhibitor, single point]
Cn1nc(-c2ccc(Cl)cc2)c2cc(C(=O)N3CCN(C(=O)c4ccco4)CC3)sc21 | – | inconclusive: 31.6 µM [inhibitor, partial curve]
COC(=O)c1sc(-c2cccs2)cc1N | – | inconclusive: 25.1 µM [inhibitor, single point]
N=C1C(=O)OCC1c1ccccc1NC(=O)CN1CCOCC1 (stereo not drawn) | inactive: -3.18% | –
CCN=C1NN=C(c2cc(C)n(CCc3ccccc3)c2C)CS1 | – | inconclusive: 39.8 µM [inhibitor, single point]
CCN(CC(=O)Nc1ccccc1OC)C(=O)C1CC2C=CC1C2 (stereo not drawn) | inactive: 2.29% | –
O=C(NCc1cccs1)c1ccc(Cl)c(S(=O)(=O)N2CCCC2)c1 | – | inconclusive: 5.62 µM [inhibitor, single point]
Cc1c(C)c2ccc(OS(C)(=O)=O)c(C)c2oc1=O | – | inconclusive: 25.1 µM [inhibitor, partial curve]

Compound | activity change, negative = inhibition | Potency
CC1=N/C(=C/c2ccco2)C(=O)O1 | – | inconclusive: 35.5 µM [inhibitor, single point]
O=C(O)c1cc(N/N=C/c2ccc(N3CCOCC3)cc2)ccc1Cl | – | inconclusive: 35.5 µM [inhibitor, single point]
CCOC(=O)C1CCN(c2nc3ccccc3n2CC(=O)c2ccccc2)CC1 | inactive: -2.96% | –
Cc1ccc2c(c1)c1c3n2CCN(C(=O)CN2CCN(C)CC2)C3CCC1 (stereo not drawn) | – | inconclusive: 35.5 µM [inhibitor, single point]
O=C(O)CCc1ccc(-c2cccs2)n1CC1CCCO1 (stereo not drawn) | – | inconclusive: 31.6 µM [inhibitor, partial curve]
CCC(C)NC(=S)Nc1ccc(C(=O)OC)cc1 (stereo not drawn) | inactive: 7.57% | –
COc1ccc(-c2nc(S(=O)(=O)c3ccccc3)c(N3CCOCC3)o2)cc1 | inactive: -6.95% | –
O=c1[nH]c2cc3c(cc2cc1CN(CC1CCCO1)S(=O)(=O)c1ccccc1)OCCO3 (stereo not drawn) | – | inconclusive: 20 µM [inhibitor, partial curve]
N=c1c(C(=O)NCc2ccc3c(c2)OCO3)cc2c(=O)n3ccccc3nc2n1Cc1cccnc1 | – | inconclusive: 25.1 µM [inhibitor, partial curve]
Cc1ccc(S(=O)(=O)Nc2ccc(NC(=O)CN3CCCCC3)c(Cl)c2)cc1 | – | inconclusive: 35.5 µM [inhibitor, single point]
CCOc1ccccc1CNC(=O)CCCc1cn(C)c2ccccc12 | – | inconclusive: 22.4 µM [inhibitor, single point]
O=C(Nc1ccc(-c2nc3ccccc3o2)cc1)c1ccc(N2CCOCC2)c([N+](=O)[O-])c1 | inactive: 3.58% | –
Cc1ccc(NC(=O)C(=O)NCCOc2ccc(Cl)cc2)c(C)c1 | inactive: -0.572% | –
Cc1ccc(-n2c(SCC(=O)c3c(N)n(C)c(=O)n(C)c3=O)nc3sc4c(c3c2=O)CCCC4)c(C)c1 | inactive: -3.13% | –
CCN(CCO)c1ncnc2c1sc1nc(CC(C)C)c3c(c12)CC(C)(C)OC3 | – | inconclusive: 22.4 µM [inhibitor, partial curve]
COc1ccc(-c2c(C)oc3c(CN4CCN(CCO)CC4)c(O)ccc3c2=O)cc1OC | – | inconclusive: 28.2 µM [inhibitor, partial curve]
COc1ccc(-n2c(-c3cnccn3)n[nH]c2=S)cc1 | – | inconclusive: 39.8 µM [inhibitor, single point]
COc1cc(NC(=O)CN2CCN(Cc3ccc4c(c3)OCO4)CC2)cc(OC)c1 | – | inconclusive: 31.6 µM [inhibitor, single point]
CC(C)Oc1cc(NC(=O)CSCC(=O)Nc2cccc(C(F)(F)F)c2)c(Cl)cc1Cl | inactive: -8.61% | –
CN(C)CCCN1C(=O)c2cccc3c([N+](=O)[O-])ccc(c23)C1=O | inactive: -1.58% | –
COc1ccc2c(c1)C(=O)[C@@H](OC(=O)NS(=O)(=O)c1ccc(C)cc1)[C@H](c1ccc(OC)c(Br)c1)O2 | inactive: -8.88% | –
COc1ccc(/C=C/C(=O)O/N=C(\N)c2cccnc2)cc1OC | – | inconclusive: 28.2 µM [inhibitor, partial curve]
COc1ccc(-c2nc3ccccc3c(=O)n2CCOc2c(C)cccc2C)cc1 | – | inconclusive: 28.2 µM [inhibitor, partial curve]

Compound | activity change, negative = inhibition | Potency
CCOC(=O)C1CCCN(CC(=O)Nc2c(C(=O)OC)[nH]c3ccccc23)C1 (stereo not drawn) | – | inconclusive: 39.8 µM [inhibitor, single point]
Cc1cc(SCC(=O)c2cc3ccccc3o2)nc2ccccc12 | – | inconclusive: 35.5 µM [inhibitor, single point]
CCN(CC)CCOCCOc1ccccc1F | inactive: 2.39% | –
COCC(C)n1c(SCc2cc(=O)n3cc(C)ccc3n2)nc2ccccc2c1=O (stereo not drawn) | – | inconclusive: 35.5 µM [inhibitor, partial curve]
CCOC(=O)c1c(-c2ccc(F)cc2)csc1NC(=O)C1CC=CCC1C(=O)O (stereo not drawn) | – | inconclusive: 39.8 µM [inhibitor, single point]
CCOC(=O)c1c(-c2ccc(OC)cc2)csc1NC(=O)C1CCCO1 (stereo not drawn) | – | inconclusive: 22.4 µM [inhibitor, single point]
CC(C)Cc1nc(C(N)=O)c2[nH]c(=O)n(-c3ccc(F)cc3)c2n1 | – | inconclusive: 12.6 µM [inhibitor, partial curve]
CCc1cc(-c2onc(C)c2-c2cscn2)c(O)cc1OC | – | inconclusive: 8.91 µM [inhibitor, single point]
O=C(CCCCCN1C(=O)c2cccc3cccc(c23)C1=O)NC1CCS(=O)(=O)C1 (stereo not drawn) | – | inconclusive: 31.6 µM [inhibitor, partial curve]
COC(=O)c1ccc2[nH]c(C)cc(=O)c2c1 | – | inconclusive: 25.1 µM [inhibitor, partial curve]
COc1ccccc1N1CCc2c(C)nc3c(OC)cccc3c21 | – | inconclusive: 28.2 µM [inhibitor, single point]
Cc1cccc2cc(CN(CCCO)C(=O)Nc3ccccc3Cl)c(=O)[nH]c12 | – | inconclusive: 25.1 µM [inhibitor, single point]
COc1ccc(N2COC3c4cccc5cccc(c45)C32)cc1 (stereo not drawn) | inactive: -8.74% | –
NC(=O)c1cc(N)ccc1N1CCCC1 | – | inconclusive: 35.5 µM [inhibitor, single point]
CCOc1ccc(-c2nnc(SCC(=O)Nc3ccc4c(c3)c3ccccc3n4CC)n2N)cc1 | – | inconclusive: 39.8 µM [inhibitor, single point]
COc1ccc2cc(C(c3nnnn3CCc3ccccc3)N3CCC(O)CC3)c(=O)[nH]c2c1 (stereo not drawn) | – | inconclusive: 39.8 µM [inhibitor, single point]
Nc1cc(N)cc(C(=O)OCC(=O)Nc2cc(S(=O)(=O)N3CCCCC3)ccc2Cl)c1 | inactive: -0.997% | –
c1cc2c(cc1-c1csc(NNC3=NCCCCC3)n1)OCCO2 | – | inconclusive: 39.8 µM [inhibitor, single point]
CCc1nc(N2CCN(Cc3ccc4c(c3)OCO4)CC2)c2oc3ccccc3c2n1 | – | inconclusive: 35.5 µM [inhibitor, single point]
Cc1c(Cl)cccc1-n1nnnc1-c1cccs1 | inactive: 1.96% | –
CCOc1ccccc1C1C(C(N)=O)=C(C)Nc2nc(CCCO)nn21 (stereo not drawn) | – | inconclusive: 25.1 µM [inhibitor, single point]
CCOC(=O)C1CCCN(C(=O)c2cn(CC)c(=O)c3cc(OC)c(OC)cc23)C1 (stereo not drawn) | – | inconclusive: 39.8 µM [inhibitor, single point]
